In this assay the test system is HopTPR2A–HSP90CTD PPI. Put plainly: ELISA-based solid-phase HopTPR2A–HSP90CTD PPI inhibitory assay. Format: biochemical.

On to “CPP-MAAVD (disulfide) [CPP-19, MAAVD containing control tethered to the Arg-8 CPP via disulfide linkage]”, for which the “Modulation of the HopTPR2A–HSP90CTD interaction” value is, setting by setting: (CPP peptides without DTT, 0.5, 5 and 50 μM, Figure 5A) “stabilized the PPI in a dose-dependent fashion”; (in the presence of DTT (reductive release of the CPP), Figure 5B) “remained inactive”.
